Test results: PubChem BioAssay AID1460 (National Center for Advancing Translational Sciences (NCATS), 2008)
Among all 270,000 compounds or so, about 5,800 (2.1%) were called active. This list was built around the results that the source calls inconclusive (neither active nor inactive); the mix of calls is not that of the screen. Calls follow the shape of the dose curve; as a rule, active = well fitted inhibition curve with a large enough effect; inconclusive = small, poorly fitted or top-dose-only effect; inactive = flat fitted curve, though single readings scatter. Potencies beside an inconclusive call are fits to weak or partial responses and may not hold up.

Target: Microtubule-associated protein tau (Homo sapiens) (UniProt P10636)
Sequence of UniProt P10636 (P10636 whole entry, looked up): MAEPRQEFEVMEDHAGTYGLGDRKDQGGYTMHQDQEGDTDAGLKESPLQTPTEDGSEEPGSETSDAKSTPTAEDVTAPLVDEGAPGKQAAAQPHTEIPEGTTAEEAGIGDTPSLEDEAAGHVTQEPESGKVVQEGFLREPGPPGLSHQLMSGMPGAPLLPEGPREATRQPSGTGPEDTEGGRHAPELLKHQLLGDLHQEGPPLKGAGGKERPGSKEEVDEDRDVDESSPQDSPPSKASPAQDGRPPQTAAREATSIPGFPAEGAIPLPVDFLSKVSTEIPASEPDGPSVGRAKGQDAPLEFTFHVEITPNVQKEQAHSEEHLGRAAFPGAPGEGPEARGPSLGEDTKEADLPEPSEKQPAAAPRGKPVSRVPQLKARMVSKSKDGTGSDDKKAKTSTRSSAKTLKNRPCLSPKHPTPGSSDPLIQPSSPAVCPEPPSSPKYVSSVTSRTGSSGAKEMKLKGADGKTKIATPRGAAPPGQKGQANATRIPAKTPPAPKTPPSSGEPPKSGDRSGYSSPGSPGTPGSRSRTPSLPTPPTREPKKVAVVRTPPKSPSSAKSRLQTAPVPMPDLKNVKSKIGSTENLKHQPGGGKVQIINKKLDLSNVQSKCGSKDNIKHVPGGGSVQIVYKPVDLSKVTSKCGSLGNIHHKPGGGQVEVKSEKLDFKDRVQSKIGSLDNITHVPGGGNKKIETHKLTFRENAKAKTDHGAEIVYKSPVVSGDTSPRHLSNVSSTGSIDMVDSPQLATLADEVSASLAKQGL
Test: qHTS for Inhibitors of Tau Fibril Formation, Thioflavin T Binding; also: nearly all actives have a fitted effect of over 55% in size
Conditions: recombinant tau K18 P301L (four-repeat tau fragment), heparin-induced fibrillization, ThT fluorescence; series mostly up to 57.4 µM; activity, negative = inhibition: at the top concentration
In short: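 K18 P301L tau (15 uM + 0.24 uM Alexa 594-tagged), heparin 20 uM, NaOAc pH 7, 6 h 37 C; ThT 30 uM, 1 h RT, ex 450/em 510 nm.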
% is scaled to controls: 0 for no effect and ±100 for the full control effect; potency is read from the fitted curve at half-maximal effect; tags tell the direction and shape of the fitted curve.

Compound | Potency | activity, negative = inhibition
C=CCNC(=O)c1cc([N+](=O)[O-])cc2c(=O)[nH]c(Nc3ccc(Cl)c(Cl)c3)nc12 | inconclusive: 39.8 µM [inhibitor, single point] | 
COc1ccc(-c2cc3c(=O)n(CC(=O)Nc4ccccc4C(F)(F)F)ccn3n2)cc1OC | inconclusive: 11.2 µM [inhibitor, partial curve] | 
CC(C)=C1C(=O)NN(c2ccc(F)c(Cl)c2)C1=O | inconclusive: 28.2 µM [inhibitor, partial curve] | 
Cc1oc2c(C)c(O)ccc2c(=O)c1-c1cnn(-c2ccccc2)c1 | inconclusive: 0.398 µM [inhibitor, full curve, poor fit] | 
CCOc1ccc(NC(=O)N2CC=C(n3c(=O)[nH]c4ccccc43)CC2)cc1 | inconclusive: 17.8 µM [inhibitor, partial curve, poor fit] | 
O=C(Nc1ccc2c(c1)OCO2)C1CCCN(c2nc3ccccc3s2)C1 (centres undefined) | inconclusive: 14.1 µM [inhibitor, partial curve] | 
Cc1ccccc1N1C(=O)CC(N2CCC(C(N)=O)CC2)C1=O (centres undefined) |  | inactive: -9.64%
N/C(=N/O)c1nc(N2CCCCC2)nc(N2CCCCC2)n1 |  | inactive: -2.93%
O=C(Nc1ccc(S(=O)(=O)Nc2ncccn2)cc1)c1cccc(Cl)c1 | inconclusive: 44.7 µM [inhibitor, single point] | 
CC1CCCCN1C(=O)CSc1nc2ccccc2nc1Cc1ccccc1 (centres undefined) |  | inactive: -10.9%
COc1ccc(-n2cc(C(=O)NCCc3ccc(C)cc3)c3ccccc3c2=O)cc1 | inconclusive: 3.98 µM [inhibitor, partial curve] | 
C[C@H]1[C@H](C)CC[C@]2(C(=O)O)CC[C@]3(C)C(=CCC4[C@@]5(C)CC[C@H](O)C(C)(C)[C@@H]5CC[C@]43C)[C@H]12 (some centres undefined) |  | inactive: 3.08%
COC(=O)c1ccc(CN2[C@H](C(=O)OC)C[C@@]3(O)[C@H](O)[C@H](O)[C@H](O)C[C@@H]23)cc1 | inconclusive: 0.0251 µM [inhibitor, full curve, poor fit] | 
COc1ccc(SN=C2C(C)=CC(=O)C=C2C)cc1 | active: 2.82 µM | 
CCOc1ccccc1CNc1ncnc2onc(-c3ccc(F)cc3)c12 |  | inactive: -3.49%
O=C(CN1C(=O)C2CCCCN2c2ccc(C(=O)N3CCCC3)cc21)NCc1ccc(F)cc1 (centres undefined) |  | inactive: 3.33%
COc1ccc2nc(NC(=O)C3=NN(c4ccccc4)C(=O)CC3)sc2c1 | inconclusive: 14.1 µM [inhibitor, partial curve] | 
COc1ccc(CNC(=O)C2CCCCN2S(=O)(=O)c2ccc(F)cc2)cc1 (centres undefined) |  | inactive: 1.48%
CCOc1c(CC2C(=O)Nc3ccc(Br)cc32)cccc1OC (centres undefined) |  | inactive: -11.4%
